Laboratory results as given in the supplement of paper PMC3656093.
± gives the standard deviation of the averaged measurements. Whole data set: some 1,900 compounds, median “CD40L-induced NF-kB luciferase activity, plate-corrected, relative to DMSO (0) and IKK inhibitor VII (-100) controls” near 0.032, cut for the lowest 2% near -26. The list shows a part of the results.

What follows are molecules tested on BL2-NFkB-Luc (assay: CD40L-induced NF-kB luciferase activity, plate-corrected, relative to DMSO (0) and IKK inhibitor VII (-100) controls (% normalized activity); higher = more NF-kB reporter activity (less inhibition)). Conditions: 9.4 µM; stimulus: tCD40L 64 ng/ml; 4.5 h.
Description: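 BL2 B cells with a stable NF-kB response-element luciferase reporter (BL2-NFkB-Luc), 384-well. Cells were pre-incubated with compound at 9.4 uM for 1 h at 37 C, then stimulated with 64 ng/ml trimerized CD40L for 4.5 h; luciferase was read with Steady-Glo. Signal was normalised per plate in Genedata (median DMSO neutral control = 0, median IKK inhibitor VII at 50 uM = -100) with Assay Median plate-pattern correction; duplicate plates.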

Structure (SMILES) | CD40L-induced NF-kB luciferase activity
C[C@]12CC[C@@H]3c4ccc(O)cc4CC[C@H]3[C@@H]1C[C@@H](O)[C@@H]2O[C@@H]1O[C@H](C(=O)O)[C@@H](O)[C@H](O)[C@H]1O | -1.76 ± 2.4
O=C(Nc1ccc(N2CCOCC2)cc1)c1ccc(-c2ccccc2[N+](=O)[O-])o1 | 17.3 ± 0.45
CCOC(=O)[C@H](CCc1ccccc1)N[C@@H](C)C(=O)N1CCC[C@H]1C(=O)O | 3 ± 0.37
O=C(OCCNC(=O)c1ccc2ccccc2n1)c1ccc(F)cc1 | -1.56 ± 4
O=C(c1ccc(Cl)cc1)C1CCCN(Cc2ccc(Oc3ncccn3)cc2)C1 (configuration not stated) | 0.281 ± 8.4
CC12CC(c3ccccc3O1)C(C(=O)N1CCOCC1)C(=O)N2 (configuration not stated) | -5.76 ± 3.6
CC1=NN(C(=O)c2ccc(Br)cc2)C(O)(c2ccccc2)C1 (configuration not stated) | 1.83 ± 0.89
COc1cc(NC(=S)NN2CCN(C)CC2)cc(OC)c1OC | -2.21 ± 1.4
CCC(C)NCCOCCOc1ccc(Cl)cc1Br (configuration not stated) | 2.58 ± 2.4
c1ccc2[nH]c(-c3cscn3)nc2c1 | 39.3 ± 4
CN1[C@@H](CC(=O)c2ccccc2)CCC[C@H]1C[C@H](O)c1ccccc1 | -3.85 ± 2.5
C#CCN1C(=O)C(O)(c2c(C)[nH]c3ccccc23)c2ccccc21 (configuration not stated) | -0.045 ± 4
COc1ccc2c(c1)[N+](C)(C)C(C)(C)C=C2C | 2.14 ± 1.6
COc1ccccc1C(O)c1nccn1C (configuration not stated) | -0.914 ± 1.4
CCOC(=O)C1=C[C@]2(CC)CCCN3CCc4c(n1c1ccccc41)[C@@H]32 | 5.17 ± 1.1
CC1CNCCN1S(=O)(=O)c1cccc2cnccc12 (configuration not stated) | -26.1 ± 6.3
COCCn1c(/C=C/c2ccccc2)nc2ccccc21 | 38.4 ± 2.4
COC1CCCCC1Nc1ccc(C)c(C)c1 (configuration not stated) | -3.88 ± 0.6
Cc1cccc(CN2CCN(C(c3ccccc3)c3ccc(Cl)cc3)CC2)c1 (configuration not stated) | -3.48 ± 4.7

Structure (SMILES) | CD40L-induced NF-kB luciferase activity
CN=C1c2cc3cc(OC)ccc3n2CCN1C | 5.23 ± 1.7
OC(C#CCN1CCCC1)(c1ccccc1)c1cccnc1 (configuration not stated) | -3.23 ± 0.2
C[C@]12CC[C@@H]3c4ccc(O)cc4CC[C@H]3[C@@H]1CCC2=O | 2.18 ± 8.7
CC(C)=CCCC(C)CN1CCC(N2CCC(C(=O)N3CCCC3)CC2)CC1 (configuration not stated) | -6.46 ± 1.9
COC(=O)c1ccc(NC(=O)C23CCC(C)(C(=O)O2)C3(C)C)cc1 (configuration not stated) | -0.16 ± 13
O=C(OCCN1CCCC1)C1(c2ccccc2)CCCC1 | -3.46 ± 0.3
COc1ccc(C)cc1S(=O)(=O)Nc1ccc(F)cc1 | 3.67 ± 1.3
CC(NC(=O)c1ccc(OC2CCN(Cc3ccccn3)CC2)cc1)c1ccccc1 (configuration not stated) | 2.34 ± 8.1
O=C(/C=C/c1ccc2c(c1)OCO2)NCc1ccc(F)cc1 | -2.11 ± 1.8
COc1ccc(-c2cc(C(=O)N3CCOCC3)c3cc(C)ccc3n2)cc1 | 3.11 ± 4.2
CN1CC2CCCC3(C1)C(=O)NC1(CCCCC1)N=C23 (configuration not stated) | 0.641 ± 1.3
COc1ccc(-c2c(C)c3ccc(OCC(C)=O)cc3oc2=O)cc1 | 57.5 ± 2.3
Cc1csc(CCc2nc(C)cs2)n1 | -0.696 ± 2
O=C(Oc1ccc2c3c(c(=O)oc2c1)CCCC3)c1ccco1 | 2.23 ± 1.5
c1cc(-c2ccncc2)ccn1 | -5.23 ± 2.5
C(=C\c1ccc2ccccc2n1)/c1ccccc1 | -56 ± 3.4
O=C1CCc2cc(OCCCCc3nnnn3C3CCCCC3)ccc2N1 | -4.1 ± 7.8
CCS(=O)(=O)CCn1c([N+](=O)[O-])cnc1C | 0.625 ± 2.5
COc1cccc(CC2CC(=O)N(c3ccc4c(C)cc(=O)oc4c3)C2=O)c1 (configuration not stated) | 4.34 ± 4.3

Structure (SMILES) | CD40L-induced NF-kB luciferase activity
Cc1ccccc1NC(=O)C1c2ccccc2Oc2ccccc21 | 1.23 ± 0.33
Cc1ccc(C(CC(=O)NCc2ccco2)c2ccc(OC(C)C)cc2)cc1 (configuration not stated) | -5.4 ± 2.5
O=C(CN1CC[n+]2c(-c3cccs3)csc21)c1ccc(Br)cc1 | 0.698 ± 1.9
CCOC(=O)c1c(C)oc2c1C(=O)c1ccccc1C2=O | 17.4 ± 14
CC(=O)OC1c2c(ccc3ccc(=O)oc23)OC(C)(C)C1OC(=O)CC(C)C (configuration not stated) | -3.56 ± 6.5
Cc1ccc2c(c1)C(C)(C)[C@]1(C)NC(=O)CCN21 | 3.05 ± 2.2
O=C1c2ccccc2C2(c3ccccc3)NCCN12 (configuration not stated) | 1.37 ± 7
O=C(CCC(=O)c1cccs1)c1cccs1 | 2.15 ± 4
CCOCc1cc(C)[nH]c(=O)c1C#N | -0.69 ± 1.2
CC(=O)N1c2ccccc2C(C)=CC1(C)C | 2.6 ± 4.1
CC(C)CC1c2[nH]c3ccccc3c2CCN1C(=O)CCC(=O)N(C)C (configuration not stated) | 2.58 ± 4
CC(=O)[C@H]1CC[C@H]2[C@@H]3C[C@H](C)C4=CC(=O)CC[C@]4(C)[C@H]3[C@@H](O)C[C@]12C | -18 ± 1.2
CCCCNC(=O)NS(=O)(=O)c1ccc(C)cc1 | -0.99 ± 6.9
O=C(O)c1cc(-c2ccc(F)cc2F)ccc1O | -4.8 ± 1.6
C[C@]12CC[C@@H]3c4cc(O)c(O)cc4CC[C@H]3[C@@H]1CC[C@@H]2O | 0.135 ± 0.014
COC(=O)c1cc(OC)c(OC)c(OC)c1[N+](=O)[O-] | -2.34 ± 0.27
COc1ccc2nc(NC(=O)Nc3ccccc3)sc2c1 | 39.5 ± 3.5
CNCCC(Oc1ccc(C(F)(F)F)cc1)c1ccccc1 (configuration not stated) | 1.22 ± 1
Cc1ccc(C(=O)NCCNC(=O)c2ccccc2)cc1 | -2.5 ± 3.9
